Measurements published in ChEMBL document CHEMBL4888484, “Replenishing the malaria drug discovery pipeline: Screening and hit evaluation of the MMV Hit Generation Library 1 (HGL1) against asexual blood stage Plasmodium falciparum ,using a nano luciferase reporter read-out” (2022).
Out of some 150,000 compounds screened, about 540 (0.36%) showed an effect of 50% or more. This is one part of the list.

System: Plasmodium falciparum
Assay: Primary screen in NF54 nanoGlo assay, in single point, at 2uM, 72h; a lower Z score goes with more inhibition
Type: functional, Erythrocyte
Settings: timepoint 72 hour

| Compound | % Inhibition | Z score |
| --- | --- | --- |
| CCn1c2c(c(=O)n3ncc(C(=O)N4CCC(Cc5ccccc5)CC4)c13)CNCC2 | 0% | -0.05 |
| CCNS(=O)(=O)[C@H]1CCN(C(=O)NCC2(C(F)F)CC2)C1 | -11% | 1.33 |
| CC(C)(C)C(=O)N1CCC[C@H]1c1nc(C2CCC2)no1 | -7% | 0.79 |
| C[C@@H](CNC(=O)c1cc(-n2cccn2)ccc1Cl)n1ccnc1 | -2% | 0.4 |
| O=C1CC(N2C(=O)[C@@H]3CC[C@@H](c4ccccc4)N3C2=O)CN1C1CC1 (stereo partly drawn) | 6% | -0.73 |
| Cc1cc(Br)cc(S(=O)(=O)Nc2ccc3ncc(C)n3c2)c1 | 2% | -0.43 |
| CC1CCCC(NC(=O)c2ccc3c(c2)OCO3)C1C (stereo not drawn) | 9% | -1.64 |
| O=C(CCN1CCCCO1)NC(Cc1ccccn1)[C@H]1C[C@@H](O)C1 (stereo partly drawn) | 4% | -0.77 |
| O=C(c1cn(Cc2ccccc2)nc1OCc1ccccc1)N1CCC(Cc2ccccc2)CC1 | -15% | 1.66 |
| Fc1ccc(Oc2cc(N3CCCCCC3)ncn2)c(F)c1 | -4% | 0.55 |
| COCC[C@H](Nc1nc(C)ns1)C(N)=O | 4% | -0.49 |
| Cn1nccc1CNC(=O)CCc1ccc(Br)cc1 | -6% | 1.07 |
| CCc1cccc2c(C3=CCN(C(=O)NC[C@H]4COCCO4)CC3)c[nH]c12 | 30% | -0.46 |
| Fc1cccc2nc(N3CCN(c4ccnnc4)CC3)oc12 | 5% | -0.97 |
| O=C(NC1CC1)C1CCN(C(=O)C2CC3CCC2C3)CC1 (stereo not drawn) | 0% | -0.01 |
| Cc1ccc(S(=O)(=O)Nc2cnc(N3CCCCCCC3)c(C(=O)O)c2)cc1C | -17% | 1.63 |
| CN1CCCC[C@H](CC(=O)N2CCN(c3ccccn3)CC2)C1=O | -12% | 2.38 |
| CCn1ncc(CN(C)c2ncc(C#N)c(N)n2)c1C | 0% | -0.03 |
| C[C@@H](C(=O)Nc1cccc(S(=O)(=O)N2CCCCC2)c1)N1CCN(c2ccccn2)CC1 | -1% | 0.11 |
| CNC(=O)c1nn[nH]c1NC(=O)C[C@H](C)c1ccccc1C | 10% | -1.18 |
| NC(=O)C1CCN(C(=O)c2nnn(-c3ccccc3)n2)CC1 | -10% | 1.42 |

| Compound | % Inhibition | Z score |
| --- | --- | --- |
| Cc1nc2c(N3C[C@H]4CC[C@H]3C4)ncnc2o1 | 15% | -1.94 |
| CCS(=O)(=O)c1ccc(-c2nc([C@H]3CCO[C@@H]3C(C)(C)C)no2)cc1 | -14% | 2.08 |
| COc1cccc(C2Nc3ccc(C)cc3[C@H]3OCC[C@@H]23)c1OC1CCCC1 (stereo partly drawn) | -12% | 1.96 |
| CCCCn1nc(C2CC2)nc1Cc1ccc(OC)c(OC)c1 | -12% | 1.47 |
| Cc1cnccc1CN(C)C(=O)[C@H](C)N1CCN(C)CC1 | -6% | 1.14 |
| Cc1ccc(CNC(=O)c2ccncc2)s1 | -6% | 0.78 |
| O=C(N[C@H]1CC[C@H](Oc2ccccn2)CC1)[C@H](O)c1ccccc1 | -2% | 0.27 |
| Cc1cccc([C@H](C(=O)O)N2CCC(Oc3ncccn3)CC2)c1 | -5% | 0.8 |
| CC(C)(C)OC(=O)NC[C@@]12CCC[C@@H]1CN(C(=O)c1cccc3c1OCO3)C2 | -4% | 0.67 |
| O=C(CCc1ccc2c(c1)OCO2)N1CCC2(CC1)[C@H](O)C[C@@H]2OCCO | -10% | 1.28 |
| COc1ccc(N(CC(=O)NCC#N)Cc2ccco2)cc1F | -14% | 1.42 |
| Cc1nc(CNC(=O)N2CCC(COc3cc(Cl)cc(Cl)c3)CC2)no1 | -10% | 1.38 |
| CO[C@@]1(c2nnc3n2CCN(C(=O)OC(C)(C)C)C(C)(C)C3)CCOC1 | -11% | 1.46 |
| O=C(CN1CCC(Cn2c(C(F)(F)F)nc3ccccc32)CC1)Nc1nccs1 | 11% | -1.94 |
| Cc1cnc(C(=O)N2CCCCCCNC(=O)[C@@H]3CCCC[C@@H]32)cn1 | 11% | -1.47 |
| COc1nc2c(cc1CN1CC[C@H]1c1ccc(F)cc1)C(=O)N(C(C)C)C2 | 4% | -0.51 |
| Cc1nnsc1C(=O)NCC[C@H](O)c1ccco1 | -20% | 2.9 |
| CC(C)(C)CC(=O)N1CCC2(CC1)N[C@H](C(=O)N1CCCC1)Cc1[nH]cnc12 | -15% | 2.28 |
| N[C@H]1CCC[C@@H](c2nc(Cc3c(Cl)cccc3Cl)n[nH]2)C1 | -19% | 1.79 |
| Cc1ccc(C)c(S(=O)(=O)Nc2cc(-c3ccoc3)no2)c1 | 1% | -0.07 |
| Cc1cc(=O)c(C(=O)N2CCc3ccc(Br)cc32)c[nH]1 | 3% | -0.36 |

| Compound | % Inhibition | Z score |
| --- | --- | --- |
| CC(C)(C)c1nc(N2CCC(CCCn3ccnc3)CC2)no1 | 2% | -0.32 |
| COCC1(S(=O)(=O)N2CCS(=O)(=O)C(C)C2C)CC1 (stereo not drawn) | -2% | 0.44 |
| Cn1c(C(=O)OC[C@H]2CCCN2C(N)=O)cc2ccccc21 | 5% | -0.74 |
| Cc1ccccc1OCCn1c(C(F)(F)F)ccc(C(N)=O)c1=O | 1% | -0.12 |
| Cc1cc2ncc3c(n2n1)CCN(C(=O)c1ccc2nsnc2c1)C3 | -12% | 1.94 |
| Cc1ccsc1-c1nc(CN2CCC(O)(CO)CC2)c(C)o1 | -10% | 1.27 |
| CN(C)S(=O)(=O)c1ccc2c(c1)CCN2C(=O)CC1CC2CCC1C2 (stereo not drawn) | 10% | -1.15 |
| O=C(c1csc(Nc2ccccc2Cl)n1)N1CCc2ccccc2C1 | 1% | -0.19 |
| c1ccc([C@@H]2CN(C3CC3)CC3(CCN(Cc4ccncc4)CC3)C2)cc1 | -1% | 0.23 |
| O=C(Nc1ccccc1)c1cc(N2CCOCC2)nc2ccccc12 | -3% | 0.38 |
| N#Cc1nccnc1N1CCC[C@]2(CC=CCC2)C1 | 0% | -0.03 |
| CCc1cccnc1C(=O)N1CCN(C(=O)c2ccc3[nH]cnc3c2)CC1 | -7% | 0.88 |
| CCCNC(=O)[C@H](C)Nc1cccc(C)c1C | 4% | -0.82 |
| COc1cc(-c2noc(-c3ccc(C)cc3)n2)ccc1OCC(=O)Nc1ccc(C)cc1 | -9% | 1.69 |
| Cn1c(CCCN2C(=O)C(C(N)=O)C3CC2(C)Oc2ccccc23)nc2ccccc21 (stereo not drawn) | -6% | 0.81 |
| O=C(NCc1ccccc1OC1CCC1)N(CCO)C1CC1 | 36% | -0.86 |
| CCn1ncnc1-c1nccn1CC1(O)CCCCC1 | -7% | 1.14 |
| O=C(CCCC1CCCCC1)N1CC(n2ccnn2)C1 | -1% | 0.14 |
| Cc1nnc(NC(=O)[C@H]2O[C@@H]3OC(C)(C)O[C@@H]3[C@H]3OC(C)(C)O[C@H]32)s1 | -8% | 0.97 |
| CC(C)N(C)CC(=O)Nc1cc(-c2ccccc2)on1 | 35% | -3.58 |
| CN1C[C@@H](O)CNS(=O)(=O)c2ccc(C3CCOCC3)cc2O[C@H]2CN(CC3CCCCC3)C[C@H]21 | 3% | -0.54 |

| Compound | % Inhibition | Z score |
| --- | --- | --- |
| Cc1cc(C)n(-c2ccc(-c3nc(-c4c(C)ncc5c4CCNC5)no3)cc2)n1 | -6% | 0.72 |
| Cn1nc(-c2ccccc2Cl)nc1NC(=O)[C@H]1CCOC1 | -5% | 0.9 |
| Cc1n[nH]c(C)c1C(=O)N1CCC(n2cc(CN3CCCC3(C)C)nn2)CC1 | 11% | -1.44 |
| CCn1nncc1C(=O)N(C(C)C)[C@H]1CCOC1 | 0% | -0.04 |
| Cc1nc(C)c(S(=O)(=O)NC[C@H](C)c2ncon2)s1 | -1% | 0.21 |
| c1ccc(-c2ncn(C[C@H]3CCCCO3)c2-c2ccnc3ccccc23)cc1 | -4% | 0.55 |
| C[C@H]1C[C@@H](C(F)F)n2ncc(C(=O)NC3CC3)c2N1 | 1% | -0.22 |
| O=C(NCc1cccs1)[C@H]1CCCN(c2nc3ccc(Cl)cc3[nH]2)C1 | -2% | 0.32 |
| O=C1CC[C@H](C(=O)N2CC(Cc3ccccc3)C2)N1 | -4% | 0.93 |
| CCCc1noc(CN(C)C(=O)c2ccc3nc(C4CCCCC4)oc3c2)n1 | -1% | 0.09 |
| CCc1nc(C(C)C)ccc1C(=O)N(C)C[C@H]1CCN(C(C)=O)C1 | 4% | -0.63 |
| CCOC(=O)N1CCC(N2CCC(CO)(C[C@H]3CCCCO3)CC2)CC1 | -7% | 0.97 |
| CC(=O)c1ncc(C(=O)N(CCN(C)C)C[C@H]2CCCO2)s1 | 20% | -2.49 |
| C[C@@H](N)C(=O)N1CCc2onc(C(c3ccccc3)c3ccccc3)c2C1 | -14% | 1.69 |
| CN(C(=O)CCc1ccsc1)c1ccccc1S(C)(=O)=O | 1% | -0.19 |
| CC(C)c1c(C(=O)N2CCN(Cc3ccccc3)CC2)cnn1-c1nccc(-c2cccs2)n1 | -6% | 1.06 |
| CCOCC(=O)N1CCN(Cc2ccc(C)o2)[C@@H]2CS(=O)(=O)C[C@@H]21 | 1% | -0.1 |
| C[C@]1(NC(=O)c2occ3c2CCOC3)CCOc2ccccc21 | -8% | 1.48 |
| Cc1cc(Br)ccc1CN(C)CC(=O)Nc1cccnn1 | -2% | 0.33 |
| Cc1cnc(CNC(=O)[C@H]2CCCO2)o1 | -5% | 0.56 |
| Cc1ccc(N(C)C(=O)c2cccnc2N(C)C)c(C)c1 | -6% | 0.78 |
